# According to the supplement of paper PMC10369915:
# This is one part of the list. No stated cut-off is given here; in the data, active = 3.2 or more and inactive = the rest. The signal is at background level for most entries.
# Molecular target: SHP2 C-SH2 domain E139D
# Experiment: enrichment score (SH2-bound / input frequency) (ratio); bacterial display of known human phosphotyrosine sites (pTyr-Var adds point mutants) read by sequencing; higher = stronger binding; tyrosines were phosphorylated by kinases first
# Conditions: peptide library: pTyr-Var
# 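Further: displayed peptides selected on beads carrying the immobilized SH2 domain, with library peptides lacking any tyrosine serving as negative controls.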
row,Binder,enrichment score
1,DTKDDYNALSV [IL17RB_Y457],inactive: 0.447
2,VMSGPYNLKAL [IL1B_Y140_E141N],inactive: 0.981
3,TFHNTYHSHMR [IL1RAPL1_Y615_Q618H],inactive: 2.53
4,YLNSSYINIST [IL23R_Y178_T175N],inactive: 2.47
5,FTYDPYSEEDP [IL2RB_Y387],inactive: 0.583
6,FTYDPYSEEEP [IL2RB_Y387_D391E],inactive: 0.664
7,DIMDLYNQPEP [IL36A_Y96],inactive: 0.762
8,DIMDLYNQPEL [IL36A_Y96_P101L],inactive: 0.857
9,VICRRYLVMQR [IL3RA_Y328],inactive: 0.334
10,VGNPAYRSFSN [IL4R_Y497_A492V],inactive: 0.413
11,LTNDRYVATLT [IL6ST_Y396_L397V],inactive: 0.754
12,ANQDDYISFRH [IMP4_Y226],inactive: 0.833
13,ANQDDHISFRH [IMP4_Y226_Y226H],inactive: 0.553
14,SLDHPYEKPRK [INAVA_Y333],inactive: 0.554
15,SLDHPFEKPRK [INAVA_Y333_Y333F],inactive: 0.741
16,ERLLDYTRTVQ [INPP5E_Y439],inactive: 0.79
17,EQLLDYTRTVQ [INPP5E_Y439_R435Q],inactive: 0.887
18,SFPPTYRYERG [INPPL1_Y661],inactive: 0.658

# Molecular target: SHP2 C-SH2 domain wild-type
# Experiment: as above
# Conditions: peptide library: pTyr-Var
row,Binder,enrichment score
1,DTKDDYNALSV [IL17RB_Y457],inactive: 0.494
2,VMSGPYNLKAL [IL1B_Y140_E141N],inactive: 0.755
3,TFHNTYHSHMR [IL1RAPL1_Y615_Q618H],inactive: 3.01
4,YLNSSYINIST [IL23R_Y178_T175N],active: 4.25
5,FTYDPYSEEDP [IL2RB_Y387],inactive: 0.605
6,FTYDPYSEEEP [IL2RB_Y387_D391E],inactive: 0.494
7,DIMDLYNQPEP [IL36A_Y96],inactive: 0.744
8,DIMDLYNQPEL [IL36A_Y96_P101L],inactive: 0.855
9,VICRRYLVMQR [IL3RA_Y328],inactive: 0.331
10,VGNPAYRSFSN [IL4R_Y497_A492V],inactive: 0.58
11,LTNDRYVATLT [IL6ST_Y396_L397V],inactive: 0.789
12,ANQDDYISFRH [IMP4_Y226],inactive: 0.749
13,ANQDDHISFRH [IMP4_Y226_Y226H],inactive: 0.684
14,SLDHPYEKPRK [INAVA_Y333],inactive: 0.74
15,SLDHPFEKPRK [INAVA_Y333_Y333F],inactive: 0.723
16,ERLLDYTRTVQ [INPP5E_Y439],inactive: 0.98
17,EQLLDYTRTVQ [INPP5E_Y439_R435Q],inactive: 0.852
18,SFPPTYRYERG [INPPL1_Y661],inactive: 0.751

# Molecular target: SHP2 N-SH2 domain L43F
# Experiment: as above
# Conditions: peptide library: pTyr-Var
row,Binder,enrichment score
1,DTKDDYNALSV [IL17RB_Y457],inactive: 0.56
2,VMSGPYNLKAL [IL1B_Y140_E141N],inactive: 1.02
3,TFHNTYHSHMR [IL1RAPL1_Y615_Q618H],inactive: 2.67
4,YLNSSYINIST [IL23R_Y178_T175N],active: 4.48
5,FTYDPYSEEDP [IL2RB_Y387],inactive: 0.567
6,FTYDPYSEEEP [IL2RB_Y387_D391E],inactive: 0.558
7,DIMDLYNQPEP [IL36A_Y96],inactive: 0.748
8,DIMDLYNQPEL [IL36A_Y96_P101L],inactive: 0.709
9,VICRRYLVMQR [IL3RA_Y328],inactive: 0.291
10,VGNPAYRSFSN [IL4R_Y497_A492V],inactive: 0.472
11,LTNDRYVATLT [IL6ST_Y396_L397V],inactive: 0.629
12,ANQDDYISFRH [IMP4_Y226],inactive: 0.909
13,ANQDDHISFRH [IMP4_Y226_Y226H],inactive: 0.697
14,SLDHPYEKPRK [INAVA_Y333],inactive: 0.593
15,SLDHPFEKPRK [INAVA_Y333_Y333F],inactive: 0.74
16,ERLLDYTRTVQ [INPP5E_Y439],inactive: 0.902
17,EQLLDYTRTVQ [INPP5E_Y439_R435Q],inactive: 0.901
18,SFPPTYRYERG [INPPL1_Y661],inactive: 0.743

# Molecular target: SHP2 N-SH2 domain T42A
# Experiment: as above
# Conditions: peptide library: pTyr-Var
row,Binder,enrichment score
1,DTKDDYNALSV [IL17RB_Y457],inactive: 0.471
2,VMSGPYNLKAL [IL1B_Y140_E141N],inactive: 0.991
3,TFHNTYHSHMR [IL1RAPL1_Y615_Q618H],inactive: 2.52
4,YLNSSYINIST [IL23R_Y178_T175N],active: 9.39
5,FTYDPYSEEDP [IL2RB_Y387],inactive: 0.441
6,FTYDPYSEEEP [IL2RB_Y387_D391E],inactive: 0.448
7,DIMDLYNQPEP [IL36A_Y96],inactive: 0.624
8,DIMDLYNQPEL [IL36A_Y96_P101L],inactive: 0.755
9,VICRRYLVMQR [IL3RA_Y328],inactive: 0.325
10,VGNPAYRSFSN [IL4R_Y497_A492V],inactive: 0.556
11,LTNDRYVATLT [IL6ST_Y396_L397V],inactive: 0.719
12,ANQDDYISFRH [IMP4_Y226],inactive: 0.791
13,ANQDDHISFRH [IMP4_Y226_Y226H],inactive: 0.667
14,SLDHPYEKPRK [INAVA_Y333],inactive: 0.606
15,SLDHPFEKPRK [INAVA_Y333_Y333F],inactive: 0.722
16,ERLLDYTRTVQ [INPP5E_Y439],inactive: 1.04
17,EQLLDYTRTVQ [INPP5E_Y439_R435Q],inactive: 0.746
18,SFPPTYRYERG [INPPL1_Y661],inactive: 0.753

# Molecular target: SHP2 N-SH2 domain T52S
# Experiment: as above
# Conditions: peptide library: pTyr-Var
row,Binder,enrichment score
1,DTKDDYNALSV [IL17RB_Y457],inactive: 0.473
2,VMSGPYNLKAL [IL1B_Y140_E141N],inactive: 0.997
3,TFHNTYHSHMR [IL1RAPL1_Y615_Q618H],inactive: 3.09
4,YLNSSYINIST [IL23R_Y178_T175N],active: 3.66
5,FTYDPYSEEDP [IL2RB_Y387],inactive: 0.518
6,FTYDPYSEEEP [IL2RB_Y387_D391E],inactive: 0.616
7,DIMDLYNQPEP [IL36A_Y96],inactive: 0.808
8,DIMDLYNQPEL [IL36A_Y96_P101L],inactive: 0.821
9,VICRRYLVMQR [IL3RA_Y328],inactive: 0.269
10,VGNPAYRSFSN [IL4R_Y497_A492V],inactive: 0.33
11,LTNDRYVATLT [IL6ST_Y396_L397V],inactive: 0.78
12,ANQDDYISFRH [IMP4_Y226],inactive: 0.799
13,ANQDDHISFRH [IMP4_Y226_Y226H],inactive: 0.604
14,SLDHPYEKPRK [INAVA_Y333],inactive: 0.545
15,SLDHPFEKPRK [INAVA_Y333_Y333F],inactive: 0.631
16,ERLLDYTRTVQ [INPP5E_Y439],inactive: 0.918
17,EQLLDYTRTVQ [INPP5E_Y439_R435Q],inactive: 0.887
18,SFPPTYRYERG [INPPL1_Y661],inactive: 0.84

# Molecular target: SHP2 N-SH2 domain wild-type
# Experiment: as above
# Conditions: peptide library: pTyr-Var
row,Binder,enrichment score
1,DTKDDYNALSV [IL17RB_Y457],inactive: 0.687
2,VMSGPYNLKAL [IL1B_Y140_E141N],inactive: 0.782
3,TFHNTYHSHMR [IL1RAPL1_Y615_Q618H],inactive: 2.65
4,YLNSSYINIST [IL23R_Y178_T175N],inactive: 2.21
5,FTYDPYSEEDP [IL2RB_Y387],inactive: 0.915
6,FTYDPYSEEEP [IL2RB_Y387_D391E],inactive: 0.545
7,DIMDLYNQPEP [IL36A_Y96],inactive: 1.03
8,DIMDLYNQPEL [IL36A_Y96_P101L],inactive: 0.968
9,VICRRYLVMQR [IL3RA_Y328],inactive: 0.228
10,VGNPAYRSFSN [IL4R_Y497_A492V],inactive: 0.622
11,LTNDRYVATLT [IL6ST_Y396_L397V],inactive: 0.871
12,ANQDDYISFRH [IMP4_Y226],inactive: 0.642
13,ANQDDHISFRH [IMP4_Y226_Y226H],inactive: 0.707
14,SLDHPYEKPRK [INAVA_Y333],inactive: 0.629
15,SLDHPFEKPRK [INAVA_Y333_Y333F],inactive: 0.71
16,ERLLDYTRTVQ [INPP5E_Y439],inactive: 1.24
17,EQLLDYTRTVQ [INPP5E_Y439_R435Q],inactive: 0.674
18,SFPPTYRYERG [INPPL1_Y661],inactive: 0.525
